In US20220144960A1 (NANJING LEGEND BIOTECH, published 2022):
Numbering of substitutions follows the chain as printed.

T1: recombinant human CD30 extra cellular domain (ECD) protein (human, UniProt P28908 19-379)
T1 construct: Bought from R&D systems; also called rhCD30; human CD30 ECD
T1 sequence: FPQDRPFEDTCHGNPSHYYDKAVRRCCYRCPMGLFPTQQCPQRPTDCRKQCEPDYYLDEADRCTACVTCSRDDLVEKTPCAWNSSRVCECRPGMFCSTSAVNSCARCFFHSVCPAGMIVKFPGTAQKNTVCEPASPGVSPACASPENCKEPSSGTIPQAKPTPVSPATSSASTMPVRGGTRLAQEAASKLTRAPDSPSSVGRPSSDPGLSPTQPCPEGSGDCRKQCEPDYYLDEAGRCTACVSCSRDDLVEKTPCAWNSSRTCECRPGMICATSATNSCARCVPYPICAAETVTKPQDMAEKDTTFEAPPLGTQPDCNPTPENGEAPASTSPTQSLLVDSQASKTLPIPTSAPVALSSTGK

B1: AS48542VH5 HCAb (humanized sdAb, human CD8α hinge, human IgG1 Fc fragment) (Fc fusion)
chain: EVQLVESGGGLVQPGGSLRLSCATSAFTFDGPDMAWYRQAPGKGCELVSIISADGRTYYADSVKGRFTISRDNSKNTVYLQMNSLRAEDTAVYYCALDPRKNCRGGYCCANWGQGTLVTVSSTTTPAPRPPTPAPTIASQPLSLRPEACRPAAGGAVHTRGLDFAC[human IgG1 Fc omitted]
notes: HCAb, crude protein from HEK293 medium
B2: AS48542VH12 HCAb (humanized sdAb, human CD8α hinge, human IgG1 Fc fragment) (Fc fusion)
chain: B1 chain with S74A, A87P
notes: as for B1
B3: AS48463 HCAb (camel sdAb, human CD8α hinge, human IgG1 Fc fragment) (Fc fusion)
chain: QVHLMESGGGSVQAGETLRLSCTASGFTFANSDMGWYRQAPGNACELVSIISSHGGTTYYVDSVKGRFTISRHNAENTVYLRMTSLKPEDTALYYCVADPRSNCRGGYCCGYWGPGTQVTVSSTTTPAPRPPTPAPTIASQPLSLRPEACRPAAGGAVHTRGLDFAC[human IgG1 Fc omitted]
notes: as for B1
B4: AS48542 HCAb (camel sdAb, human CD8α hinge, human IgG1 Fc fragment) (Fc fusion)
chain: QMQLVESGGGSVQAGETLRLSCTTSAFTFDGPDMAWYRQAPGNECVLVSIISADGRTYYADSVKGRFTISRDNAKNTVFLNLNSLQPEDTAVYYCALDPRKNCRGGYCCANWGPGTQVTVSSTTTPAPRPPTPAPTIASQPLSLRPEACRPAAGGAVHTRGLDFAC[human IgG1 Fc omitted]
notes: as for B1
B5: AS53574VH4 HCAb (humanized sdAb, human CD8α hinge, human IgG1 Fc fragment) (Fc fusion)
chain: EVQLVESGGGLVQPGGSLRLSCAASGYIYSSNCMGWFRQAPGKGLEWVSRIHTGSGSTYYADSVKGRFTISRDNSKNTLYLQMNSLRAEDTAVYYCAAGRVVLGAVVCTNEYWGQGTLVTVSSTTTPAPRPPTPAPTIASQPLSLRPEACRPAAGGAVHTRGLDFAC[human IgG1 Fc omitted]
notes: as for B1
B6: AS47863 HCAb (camel sdAb, human CD8α hinge, human IgG1 Fc fragment) (Fc fusion)
chain: QVQLEESGGGSVQAGETLRLSCTASGSTFGDSDMGWYRQAPGNACELVSIISSDGRTYYVDSVKGRFTISQDNAVSTVYLQMNSLKPEDTGVYYCAADLRQYCRDGRCCGYWGQGTQVTVSSTTTPAPRPPTPAPTIASQPLSLRPEACRPAAGGAVHTRGLDFAC[human IgG1 Fc omitted]
notes: as for B1
B7: AS48463VH4 HCAb (humanized sdAb, human CD8α hinge, human IgG1 Fc fragment) (Fc fusion)
chain: EVQLLESGGGLVQPGGSLRLSCAASGFTFANSDMGWYRQAPGKGCELVSIISSHGGTTYYVDSVKGRFTISRDNSKNTLYLQMNSLRAEDTAVYYCVADPRSNCRGGYCCGYWGQGTLVTVSSTTTPAPRPPTPAPTIASQPLSLRPEACRPAAGGAVHTRGLDFAC[human IgG1 Fc omitted]
notes: as for B1
B8: AS48463VH11 HCAb (humanized sdAb, human CD8α hinge, human IgG1 Fc fragment) (Fc fusion)
chain: B7 chain with S75A, A88P
notes: as for B1
B9: AS47863VH4 HCAb (humanized sdAb, human CD8α hinge, human IgG1 Fc fragment) (Fc fusion)
chain: EVQLVESGGGLVQPGGSLRLSCAASGSTFGDSDMGWYRQAPGKGCELVSIISSDGRTYYVDSVKGRFTISQDNSKNTLYLQMNSLRAEDTAVYYCAADLRQYCRDGRCCGYWGQGTLVTVSSTTTPAPRPPTPAPTIASQPLSLRPEACRPAAGGAVHTRGLDFAC[human IgG1 Fc omitted]
notes: as for B1
B10: AS47863VH11 HCAb (humanized sdAb, human CD8α hinge, human IgG1 Fc fragment) (Fc fusion)
chain: B9 chain with S74A, A87P
notes: as for B1
B11: AS53445VH11 HCAb (humanized sdAb, human CD8α hinge, human IgG1 Fc fragment) (Fc fusion)
chain: QVQLVESGGGVVQPGGSLRLSCAASGYIFCMGWFRQAPGKGREGIATIYTGGDSTYYDDSVKGRFTISRDNAKNTLYLQMNSLRPEDTAVYYCAAGGQECYLTNWVSYWGQGTLVTVSSTTTPAPRPPTPAPTIASQPLSLRPEACRPAAGGAVHTRGLDFAC[human IgG1 Fc omitted]
notes: as for B1
B12: AS53445 HCAb (camel sdAb, human CD8α hinge, human IgG1 Fc fragment) (Fc fusion)
chain: B11 chain with V11S, P14A, A23T, G41A, L76V, R84K, V90M, L114Q
notes: as for B1
B13: AS53445VH4 HCAb (humanized sdAb, human CD8α hinge, human IgG1 Fc fragment) (Fc fusion)
chain: B11 chain with R42L, A72S, P85A
notes: as for B1

Target: T1, recombinant human CD30 extra cellular …
Assay: SPR Biacore, HCAb captured by anti-human Fc pAb, human CD30 concentration series, 1:1 fit
Text: The camel and humanized sdAb sequences were fused with human CD8α hinge (SEQ ID NO: 62) and human IgG1 Fc fragment (SEQ ID NO:217), making the humanized HCAb sequences. The DNAs encoding these HCAbs were synthesized and inserted into pTT5 vector. HCAb expression plasmids were used to transfect HEK293 cells. Crude HCAb proteins secreted to the medium were subjected to SPR affinity measurement. Briefly, capturing antibody anti-human Fc pAb (GE healthcare) was immobilized on a Biacore™ CMS chip to approximately 6,000 RU using EDC-activated amine coupling chemistry. HCAbs of interest were captured for 300 seconds onto the sensorchip surface. Human CD30 (R&D systems, Cat. #6126-CD) flowed over the sensorchip surface at a series of increasing concentrations. Association and dissociation were monitored. Captured antibody and antigen were removed between cycles using 10 mM Glycine-HCl, pH 2.0 buffer in order to ensure a fresh binding surface for the next round. The resulting sensorgram was fit globally using a 1:1 binding model in order to calculate on- and off-rates (kₐ and kd, respectively), as well as the binding affinities (KD).
The binding affinities of some humanized HCAbs were compared with their chimeric counterparts. Most of the humanized HCAbs retained their binding affinities (Table 7).

| Kd [nM] | koff [s⁻¹] | kon [M⁻¹ s⁻¹] | Binder |
| --- | --- | --- | --- |
| 260 | 0.0076 | 29000 | B1 |
| 250 | 0.0068 | 27000 | B2 |
| 270 | 0.02 | 75000 | B3 |
| 120 | 0.0027 | 22000 | B4 |
| 2.8 | 0.00044 | 160000 | B5 |
| 120 | 0.0037 | 32000 | B6 |
| 480 | 0.049 | 100000 | B7 |
| 510 | 0.042 | 82000 | B8 |
| 450 | 0.02 | 44000 | B9 |
| 460 | 0.024 | 52000 | B10 |
| 210 | 0.049 | 230000 | B11 |
| 78 | 0.019 | 240000 | B12 |
| 200 | 0.03 | 150000 | B13 |
